# Results: paper PMC6919601, “Identification of Plasmodium dipeptidyl aminopeptidase allosteric inhibitors by high throughput screening” (PLoS ONE, 2019)
# Among all 110,000 compounds or so, about 230 (0.21%) showed an effect of 50% or more. This is one part of the list.
# Biological target: DPAP1 (Plasmodium falciparum, UniProt Q8IIJ9)
# Experiment: primary screen, percent inhibition; read by cleavage of a fluorogenic dipeptide substrate; higher = more effect of the substance
# Design: species or system P. falciparum D10 trophozoite lysates; single well
# 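Note: 30 min substrate incubation versus DMSO and 10 µM JCP410 controls.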
# DPAP1, sequence (Q8IIJ9 whole entry, looked up): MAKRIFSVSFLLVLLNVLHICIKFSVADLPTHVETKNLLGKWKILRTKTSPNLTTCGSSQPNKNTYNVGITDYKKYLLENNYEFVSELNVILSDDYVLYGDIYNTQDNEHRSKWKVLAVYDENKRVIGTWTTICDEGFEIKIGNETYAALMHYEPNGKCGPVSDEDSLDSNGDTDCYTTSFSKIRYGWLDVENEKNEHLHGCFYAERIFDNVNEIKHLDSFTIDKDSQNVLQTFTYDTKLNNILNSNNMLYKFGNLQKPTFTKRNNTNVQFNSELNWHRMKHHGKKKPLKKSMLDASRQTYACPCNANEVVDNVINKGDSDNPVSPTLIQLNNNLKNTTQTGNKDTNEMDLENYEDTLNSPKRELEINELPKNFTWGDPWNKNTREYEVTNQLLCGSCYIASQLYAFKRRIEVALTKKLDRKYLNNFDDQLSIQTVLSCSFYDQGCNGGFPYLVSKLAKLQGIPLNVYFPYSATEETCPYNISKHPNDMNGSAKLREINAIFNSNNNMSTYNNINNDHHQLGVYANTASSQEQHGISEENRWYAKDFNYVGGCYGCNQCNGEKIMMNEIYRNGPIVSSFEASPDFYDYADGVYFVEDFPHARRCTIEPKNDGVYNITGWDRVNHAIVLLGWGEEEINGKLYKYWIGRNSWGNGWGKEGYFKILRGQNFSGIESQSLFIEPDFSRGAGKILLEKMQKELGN
row,Structure (SMILES),% Inhibition @ 10 uM [%]
1,O=C(CSc1nnc2ccc3ccccc3n12)Nc1nsc(-c2ccccc2)n1,2.25
2,COCCCNC(=O)c1cnn(-c2ccc(C)c(C)c2)c1C1CCN(C(=O)OC(C)(C)C)CC1,-5.97
3,CC(C)(C)c1ccc(S(=O)(=O)N2CCCCC2C(=O)NCc2ccccn2)cc1 (stereo not shown),-0.972
4,Cn1c(NCc2ccco2)nc2c1c(=O)n(Cc1cccc(Br)c1)c(=O)n2C,-6.98
5,CC(C)CC(NC(=O)c1ccc(C23CC4CC(CC(C4)C2)C3)cc1)C(=O)NCc1ccccn1 (stereo not shown),-1.73
6,CCOC(=O)N1CCC(NCc2cccc(Br)c2)CC1,0.217
7,Cc1c(/C=C2\SC(=S)NC2=O)c(=O)n(-c2ccccc2)n1C,-3.93
8,CC(C)OCCCNC(=O)/C(C#N)=C/c1c(Oc2ccc(Cl)cc2)nc2ccccn2c1=O,1.19
9,COc1ccc(C(=O)NC(C)Cc2c[nH]c3ccccc23)cc1 (stereo not shown),-3.58
10,Nc1cccc(Oc2ccc(C(c3ccc(Oc4cccc(N)c4)cc3)(C(F)(F)F)C(F)(F)F)cc2)c1,2.7
11,Cc1ccccc1NC(=O)C(Cc1c[nH]c2ccccc12)NC(=O)OC(C)(C)C (stereo not shown),2.87
12,C/N=C1\S/C(=C\c2ccccc2OCc2ccc(C(=O)O)cc2)C(=O)N1C,1.17
13,CC(C)CN(CC(C)C)C(=O)C1CCN(S(=O)(=O)c2cccc3nsnc23)CC1,1.9
14,CC(NC(=O)c1ccccc1NC(=O)c1ccc(N(C)S(C)(=O)=O)cc1)c1ccccc1 (stereo not shown),0.245
15,Cc1ccc(OCC(=O)Nc2ccccc2C#N)c(Br)c1,-0.992
16,CN(CCCNC(=O)Cn1ncc2c3ccccc3n(C)c2c1=O)C1CCCCC1,2.99
17,COc1ccc(C(=O)Nc2cccc(Cl)c2Cl)cc1OC,-4.33
18,COc1ccc(-c2cc(C(F)F)n3ncc(C(=O)N4CCCC(C)C4)c3n2)cc1 (stereo not shown),-0.958
19,CCOc1ccc(NC2=NC(=O)CC(C(=O)Nc3ccc(C)cc3)N2)cc1 (stereo not shown),0.145
20,COc1ccc(C(=O)N2CCCC(c3ccccc3)C2)cc1 (stereo not shown),-3.4
21,COc1ccc(C(=O)n2nc(C)c(Br)c2C)cc1OC,4.32
22,Cc1cccc(C(=O)NC(=O)Nc2cc(C)on2)c1,-4.49
23,COc1ccccc1-c1cc(-c2ccccc2)nc2sc(C(=O)c3ccc(-c4ccccc4)cc3)c(N)c12,1.42
24,Fc1ccc(F)c(CN2CCOCC2)c1,2.91
25,Cc1cccn2c(=O)c3cc(C(=O)NCCN4CCOCC4)c(=N)n(CCc4ccccc4)c3nc12,6.7

row,Structure (SMILES),% Inhibition @ 10 uM [%]
1,COc1cc2nc(S)n3nc(COc4ccccc4Br)nc3c2cc1OC,-2.29
2,COCc1[nH]nc2c1C(c1ccccc1C)C(C#N)=C(N)O2 (stereo not shown),7.17
3,CN1CCN(C(=O)CCn2c(=O)c3cccn3c3cccnc32)CC1,6.91
4,Cc1nnc(N2CCC(C(=O)NCCc3c[nH]c4ccccc34)CC2)c2nn(-c3ccccc3)c(C)c12,1.45
5,CCOc1ccccc1C(=O)Nc1ccc(C)cc1Br,1.15
6,COc1cccc(CNC23CC4CC(CC(C4)C2)C3)c1OC,-3.32
7,CN(C)/C=N/c1c(Br)cc(Br)c2nonc12,-2.03
8,COCCNC(=O)c1cc2nc(-c3cccs3)cc(C(F)(F)F)n2n1,14.3
9,CC(C)C[C@H](NC(=O)N1CCN(c2ncccn2)CC1)C(=O)NCC#N,-6.98
10,CCOC(=O)N1CCC(NC(=O)c2ccc3c(c2)ncn3C2CCCC2)CC1,-4.97
11,Cc1ccc(-c2csc(NC(=O)c3ccc(C)o3)n2)cc1,1.27
12,Cn1c(=O)c(S(=O)c2cc(Cl)c(Cl)cc2Cl)c(O)c2ccccc21 (stereo not shown),6.29
13,CCC(=O)Nc1c(-c2ccccc2)nc2ccc(C)cn12,-5.08
14,CC(=O)NC(C)c1ccc(Br)cc1 (stereo not shown),3.61
15,CN1CCN(c2ccc(NC(=O)C3CC=CCC3C(=O)O)cc2)CC1 (stereo not shown),3.58
16,COC(=O)Nc1ccc(S(=O)(=O)N(C)C)cc1,-2.35
17,O=C(c1ccncc1)N(C1CCCCC1)C1CCCCC1,7.82
18,Cc1cc(Cl)ccc1NS(=O)(=O)c1ccc(Cl)cc1,3.83
19,CC(C)CNC(=O)Cn1cnc2c(nc3n2CCCCC3)c1=O,-0.495
20,CCO/N=C(\C(=N/OCC)c1ccccc1)c1ccccc1,5.94
21,O=C(c1ccc(Cl)cc1)N1CCc2c([nH]c3ccccc23)C1,-0.28
22,COc1ccc(OC)c(S(=O)(=O)NC2CCN(Cc3ccccc3)CC2)c1,2.01
23,CC1CCCN(c2nc3c(-c4ccccc4)nnn3c3ccccc23)C1 (stereo not shown),-6.52
24,Cc1cc(C)c(S(=O)(=O)N(C)CC(=O)NC2CC2)c(C)c1,-0.519
